Hit rate of the full screen: of about 310,000 compounds, about 14,000 (4.5%) showed an effect of 50% or more. The effect is printed as a negative number. Some of the results follow.
Biological target: human ether-à-go-go-related gene (hERG) potassium channel (human, UniProt Q12809)
Assay: primary screen, population patch clamp on CHO cells stably expressing hERG
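Further: peak tail current of the secondary pulse compared with the same well before compound.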

Sequence of human ether-à-go-go-related gene (hERG) potassium channel (Q12809 whole entry, looked up): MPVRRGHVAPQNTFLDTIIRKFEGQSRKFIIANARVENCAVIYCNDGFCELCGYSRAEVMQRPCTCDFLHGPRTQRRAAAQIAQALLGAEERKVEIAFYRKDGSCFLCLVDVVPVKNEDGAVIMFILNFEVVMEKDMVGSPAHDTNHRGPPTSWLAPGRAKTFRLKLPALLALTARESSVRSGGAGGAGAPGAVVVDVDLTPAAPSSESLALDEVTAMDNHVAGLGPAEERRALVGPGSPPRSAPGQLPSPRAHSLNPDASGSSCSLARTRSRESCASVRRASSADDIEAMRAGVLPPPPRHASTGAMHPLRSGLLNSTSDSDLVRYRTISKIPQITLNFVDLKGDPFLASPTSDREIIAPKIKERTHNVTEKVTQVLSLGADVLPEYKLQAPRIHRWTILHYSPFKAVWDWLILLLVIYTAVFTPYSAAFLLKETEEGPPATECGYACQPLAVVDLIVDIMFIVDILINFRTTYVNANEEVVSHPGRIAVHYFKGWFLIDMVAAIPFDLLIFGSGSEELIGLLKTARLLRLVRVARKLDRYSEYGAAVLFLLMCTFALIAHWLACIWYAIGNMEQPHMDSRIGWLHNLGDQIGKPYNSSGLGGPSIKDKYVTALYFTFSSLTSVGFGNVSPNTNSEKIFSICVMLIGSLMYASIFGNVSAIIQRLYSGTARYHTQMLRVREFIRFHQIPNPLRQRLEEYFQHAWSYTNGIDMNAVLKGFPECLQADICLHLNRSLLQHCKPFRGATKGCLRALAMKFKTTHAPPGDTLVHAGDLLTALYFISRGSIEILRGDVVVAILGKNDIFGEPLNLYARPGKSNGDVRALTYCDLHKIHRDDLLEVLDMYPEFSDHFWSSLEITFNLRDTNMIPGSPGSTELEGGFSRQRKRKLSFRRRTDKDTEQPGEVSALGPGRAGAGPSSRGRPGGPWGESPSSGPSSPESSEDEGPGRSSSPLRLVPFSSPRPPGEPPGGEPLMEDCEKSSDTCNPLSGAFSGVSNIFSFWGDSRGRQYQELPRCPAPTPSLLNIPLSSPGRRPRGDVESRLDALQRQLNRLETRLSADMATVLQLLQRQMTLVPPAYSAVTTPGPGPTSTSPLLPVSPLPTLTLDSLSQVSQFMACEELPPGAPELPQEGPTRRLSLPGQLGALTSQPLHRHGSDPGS

| SMILES | hERG current change (%, negative = inhibition) at 10uM [%] |
| --- | --- |
| CCOC(=O)c1c(C)nc2ccccc2c1C.Cl | -4.65 |
| O=C(Nc1ccc(Cl)cn1)c1cc2c(s1)-c1ccccc1OC2 | 12.3 |
| Cc1ccc(C)c(NC(=O)/C(C#N)=C/c2ccc(Sc3nncn3C)c([N+](=O)[O-])c2)c1 | -2.24 |
| CN1CCN(c2ccc(S(=O)(=O)N3CCCCC3)cc2NC(=O)c2ccc(C#N)cc2)CC1 | -41.7 |
| NC(=O)CCCc1nc(-c2ccccc2Cl)no1 | 6.58 |
| CN(Cc1cccnc1)Cc1cn(C)nc1-c1ccc(Oc2ccccc2)cc1 | -27.9 |
| COc1ccc(C2C(C(=O)Nc3cc(C)on3)c3ccccc3C(=O)N2C)cc1OC (stereo not drawn) | -2.66 |
| COc1ccc(S(=O)(=O)CCc2nnc(NC(C)=O)s2)cc1 | 22.6 |
| C=CCN1C(=O)c2ccccc2Sc2ccc(C(=O)N3CCN(C)CC3)cc21 | -13 |
| Cc1ccc(S(=O)(=O)/N=C(/c2ccc(F)cc2)N2CCOCC2)cc1 | 1.28 |
| CC(=O)Nc1ccc(NC(=O)C2CCCN(C(=O)c3ccc(Cl)cc3)C2)cc1 (stereo not drawn) | 6.47 |
| COc1ccc([C@@H]2CC=C(C(=O)O)CN2S(=O)(=O)c2ccc(C)cc2)cc1OC | 26.9 |
| Cc1nn(-c2ccccc2)c(Cl)c1/C=C(\CC(=O)O)c1nc2ccccc2s1 | -5.54 |
| O=P(Oc1ccccc1)(Oc1ccccc1)N1CCN(c2ccc(F)cc2)CC1 | 7.23 |
| C/C(=N\NC(=S)NCc1ccccc1)c1ccccc1 | -0.412 |
| CC(=O)N1CCC2(CC1)CC(=O)c1cc(OCC(=O)NCc3ccc(C)cc3)ccc1O2 | -21.3 |
| COc1ccccc1N1CCN(C(=O)CCNC(=O)Cn2ccc3ccccc3c2=O)CC1 | 2.62 |
| Cc1cc(OCC(=O)Nc2ccncc2)ccc1Cl | 2.32 |
| Cc1nc(Nc2ccc(S(=O)(=O)N3CCCCC3C)cc2)c2nnn(Cc3ccccc3)c2n1 (stereo not drawn) | 12.8 |
| CC1CCCC(C)N1C(=O)CSc1nc2c(c(=O)n(C)c(=O)n2C)n1C (stereo not drawn) | 5.34 |
| CC(Cc1ccccc1)C(=O)N(C)Cc1ccccc1 (stereo not drawn) | -2.04 |

| SMILES | hERG current change (%, negative = inhibition) at 10uM [%] |
| --- | --- |
| O=C(Nc1ccc(S(=O)(=O)NCC2CCCO2)cc1)c1ccccc1 (stereo not drawn) | 2.19 |
| COc1ccccc1NC(=S)N(CCc1nc2cc(C)c(C)cc2[nH]1)Cc1cccnc1 | -40 |
| CCN(CC)Cc1c(C(=O)N/N=C/c2cccc3ccccc23)nnn1-c1nonc1N | -10.5 |
| CC1(C)Cc2c(sc(NC(=O)COc3ccc(Cl)cc3Cl)c2C(N)=O)C(C)(C)N1 | 12.1 |
| CCN(CC)S(=O)(=O)c1ccc(C)c(NC(=O)c2cc(C)oc2C)c1 | -41.7 |
| Cl.N=c1c[n+](C2CCCCC2)[n-]o1 | 8.71 |
| O=C(CN1C(=O)NC2(CCCC2)C1=O)OCCOc1ccc(Cl)cc1Cl | -23.3 |
| CCOC(=O)C(C)c1ccc2cc(OC)ccc2c1 (stereo not drawn) | 4.01 |
| O=C(CNC(=O)c1sc2ccccc2c1Cl)NCc1cccc(C(F)(F)F)c1 | -11.9 |
| O=[N+]([O-])c1ccc(N/N=C/c2cccc(O)c2O)cc1 | 10.8 |
| CCOc1ccc(S(=O)(=O)N2CCN(c3ncccn3)CC2)cc1 | 9.1 |
| CC(C)=CC(=O)N1CCC(N2CCC(C(=O)NCC3CCCO3)CC2)CC1 (stereo not drawn) | 15.4 |
| COc1cc(/C=C/C(=O)O)ccc1OS(=O)(=O)c1c(C)cc(C)cc1C | -43.2 |
| CCN1CCN(c2ccc(NC(=O)Cc3ccccc3)cc2)CC1 | -23.5 |
| Cc1c(C(=O)NCCSc2ccc(Cl)cc2)cccc1[N+](=O)[O-] | -22.3 |
| COc1ccc(N2C(=O)C(CC(=O)Nc3ccccc3)N(CCc3ccc(OC)c(OC)c3)C2=O)cc1 (stereo not drawn) | 6.25 |
| CCCCn1c(N)c(N(CCOC)C(=O)CSCc2c(C)noc2C)c(=O)[nH]c1=O | 17.1 |
| Cc1cnc(C(=O)OCC(=O)Nc2ccc(Oc3ccccc3)cc2)cn1 | 1.75 |
| COc1ccc2c(c1)nc(SCC(=O)C(C)(C)C)n2C | -2.82 |
| O=C(O)c1cccc(-c2nnn(Cc3ccccc3Cl)n2)c1 | -2.59 |
| O=C(CCn1nnc2ccccc2c1=O)NCC1CCC(C(=O)O)CC1 (stereo not drawn) | 9.84 |
